# Laboratory results published in PubChem BioAssay AID504845 (National Center for Advancing Translational Sciences (NCATS), 2011).
# Among all 390,000 compounds or so, about 150 (0.038%) were called active. The inconclusive results got no clear call from the source; some entries with a clear call stand among them for comparison. Calls follow the shape of the dose curve; as a rule, active = well fitted inhibition curve with a large enough effect; inconclusive = small, poorly fitted or top-dose-only effect; inactive = no such curve, though single readings can be large or run the other way. Potencies beside an inconclusive call are fits to weak or partial responses and may not hold up.
# Biological target: Regulator of G-protein signaling 4 (Homo sapiens) (UniProt P49798)
# Test: Inhibitors of Regulator of G Protein Signaling (RGS) 4: qHTS; also: nearly all actives have a fitted effect of over 75% in size
# Settings: Transcreener GDP fluorescence polarization, RGS4-accelerated GTP hydrolysis; series mostly up to 114 µM
# In short: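 MLSMR compounds (23 nl, pin-transferred) preincubated 10 min at room temperature with a 500nM (2x) first reagent, then RGS4 at 900nM (2x) plus Transcreener GDP mix added; fluorescence polarization (620/688 nm) read before and after 90 min at 30 °C.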
# Potency is read from the fitted curve at half-maximal effect; tags tell the direction and shape of the fitted curve.
# Chain of UniProt P49798 (P49798 whole entry, looked up): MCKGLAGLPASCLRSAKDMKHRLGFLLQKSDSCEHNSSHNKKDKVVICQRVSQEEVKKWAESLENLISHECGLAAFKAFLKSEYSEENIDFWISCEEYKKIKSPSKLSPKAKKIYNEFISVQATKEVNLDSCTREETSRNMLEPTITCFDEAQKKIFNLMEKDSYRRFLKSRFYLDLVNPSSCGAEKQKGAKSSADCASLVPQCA
row,SMILES,Potency
1,O=C(O)c1ccc(C2CCCCC2)cn1,"inconclusive: 100 µM [inhibitor, single point]"
2,Cc1ccc2nc(N3CCN(Cc4nnnn4Cc4ccccc4)CC3)c(C#N)cc2c1,inactive
3,COc1ccc(C(=O)/C=C/c2cn(CC(O)CN3CCN(C)CC3)c3ccccc23)cc1OC (configuration not stated),"inconclusive: 39.8 µM [inhibitor, partial curve, poor fit]"
4,Cn1c(=O)c2c(nc(NNC(=O)C(F)(F)F)n2C)n(C)c1=O,"inconclusive: 28.2 µM [inhibitor, full curve, poor fit]"
5,COc1ccc(C(=O)N2[C@@H](C(C)C)COc3cc(Br)ccc3S2(=O)=O)cc1,"inconclusive: 89.1 µM [inhibitor, single point]"
6,CCOc1ccc(NC(=O)CN(C)C(=O)c2cc(-c3ccncc3)nc3ccccc23)cc1OCC,"inconclusive: 100 µM [inhibitor, single point]"
7,CC(C(=O)Nc1ccccc1C(=O)N1CCOCC1)N(c1ccccc1)S(C)(=O)=O (configuration not stated),"inconclusive: 31.6 µM [inhibitor, full curve, poor fit]"
8,COc1cccc(Nc2ccccc2C(=O)O)c1,inactive
9,Cc1ccc(CN(C)C(=O)C2CCC(=O)N(CCc3ccccc3)C2)o1 (configuration not stated),"inconclusive: 20 µM [inhibitor, full curve, poor fit]"
10,COc1ccc(S(=O)(=O)Nc2nnc(C(C)(C)C)s2)cc1,"inconclusive: 10 µM [inhibitor, full curve, poor fit]"
11,O=C(CCN1C(=O)/C(=C/c2cccs2)SC1=S)N1CCCCC1,inactive
12,COc1ccc(OC)c(/C=C2\Oc3cc(OCC(=O)N4CCC[C@H]4C(=O)O)ccc3C2=O)c1,"inconclusive: 50.1 µM [inhibitor, partial curve, poor fit]"
13,COc1ccc(-n2nc(C(=O)NCC(=O)NCCC3=CCCCC3)c3ccccc3c2=O)cc1OC,inactive
14,CCOC(=O)c1c(OCC)[nH]c2c1cc(O)c1ccccc12,"inconclusive: 20 µM [inhibitor, full curve, poor fit]"
15,O=C(NCCCCc1ccccc1)c1cccc(NC(=O)C2CC2)c1,"inconclusive: 28.2 µM [inhibitor, full curve, poor fit]"
16,COc1ccccc1OCCC(=O)NCc1ccc2c(c1)OCO2,"inconclusive: 39.8 µM [inhibitor, partial curve, poor fit]"
17,CN(C)S(=O)(=O)c1ccc(C(=O)OC2CCOC2=O)cc1 (configuration not stated),inactive
18,Cc1c2cc[n+](CCN3CCCCC3)cc2c(C)c2c1[nH]c1ccc(O)cc12,"inconclusive: 70.8 µM [inhibitor, partial curve, poor fit]"
19,COC(=O)c1ccc(NC(=O)CSc2ccccc2)cc1,"inconclusive: 31.6 µM [inhibitor, full curve, poor fit]"
20,CC(=O)Oc1ccc(C(=O)Nc2ccccc2C(=O)N2CCCCC2)cc1,inactive
21,NC(=O)CSc1nnc(-c2ccco2)n1-c1ccccc1,inactive
22,Cc1ccc(OCc2cc(C(=O)NCCn3cccn3)no2)cc1C,inactive
23,Cc1cc([N+](=O)[O-])nn1CC(=O)N1c2ccccc2CC1C (configuration not stated),"inconclusive: 100 µM [inhibitor, single point]"

row,SMILES,Potency
1,CCc1cc2c(SCC#N)ncnc2s1,"inconclusive: 79.4 µM [inhibitor, partial curve, poor fit]"
2,CCc1ccc(C(=O)c2cn(CC(=O)Nc3ccc(F)c(F)c3)c3cc(OC)c(OC)cc3c2=O)cc1,"inconclusive: 89.1 µM [inhibitor, single point]"
3,CC(NC(=O)c1ccc(S(=O)(=O)C(F)F)cc1)c1ccccc1 (configuration not stated),"inconclusive: 79.4 µM [inhibitor, partial curve, poor fit]"
4,OCC1OC(n2nnc3ccccc32)C(O)C(O)C1O (configuration not stated),inactive
5,CCCCC/C=C\C\C=C/C=C/C=C/[C@@H](SC[C@H](N)C(=O)NCC(=O)O)[C@@H](O)CCCC(=O)O,active: 26.7 µM
6,Cc1ccc(NC(=S)Nc2cccc3ccccc23)cc1F,"inconclusive: 100 µM [inhibitor, partial curve, poor fit]"
7,Cc1c2ccccc2nc2c(F)c(N(C)C)c(F)c(F)c12,inactive
8,CCC1CCCCN1C(=O)CSc1nc2ncccc2[nH]1 (configuration not stated),"inconclusive: 44.7 µM [inhibitor, partial curve, poor fit]"
9,Cc1ccc(Cn2c(=O)c3cccnc3n(CC(=O)Nc3cccc(C(F)(F)F)c3)c2=O)cc1,inactive
10,Cc1cc(C)n(-c2ccc(C(=O)Nc3cccc([N+](=O)[O-])c3)cc2)n1,"inconclusive: 89.1 µM [inhibitor, partial curve, poor fit]"
11,Oc1cc(-n2cccn2)c(O)cc1-n1cccn1,"inconclusive: 79.4 µM [inhibitor, single point]"
12,O=C(COc1coc(CN2CCN(Cc3ccccc3)CC2)cc1=O)Nc1ccccc1,"inconclusive: 89.1 µM [inhibitor, single point]"
13,COC(=O)CC1C(=O)NCCN1C(=O)CSc1nc2cc(Cl)ccc2o1 (configuration not stated),"inconclusive: 70.8 µM [inhibitor, single point]"
14,CCn1c(N)c(C(=O)NCc2ccco2)sc1=S,"inconclusive: 22.4 µM [inhibitor, full curve, poor fit]"
15,Oc1ccc(Cn2cc[nH]c2=S)cc1,"inconclusive: 29.9 µM [inhibitor, single point]"
16,CCC(=O)N1CCc2cc(Br)cc(S(=O)(=O)CCC(=O)NCCc3ccc(OC)c(OC)c3)c21,inactive
17,C=CCSc1nccc(=O)[nH]1,"inconclusive: 79.4 µM [inhibitor, partial curve, poor fit]"
18,C=CCNC(=O)[C@@H]1CSC2c3ccc(OC)c(OC)c3C(=O)N21 (some centres not stated),"inconclusive: 39.8 µM [inhibitor, partial curve, poor fit]"
19,Cc1occc1C(=O)N1CCN(C(c2ccccc2)c2ccccc2)CC1,"inconclusive: 89.1 µM [inhibitor, single point]"
20,O=C(NCCCn1ccnc1)c1ccc(N2CCCCCC2)c([N+](=O)[O-])c1,inactive
21,Cc1cccc(S(=O)(=O)NNC(=O)Cc2cccn2C)c1,"inconclusive: 50.1 µM [inhibitor, partial curve, poor fit]"
22,COc1ccc(CNC(=O)CN2C(=O)CCSc3ccc(S(=O)(=O)N4CCCC4)cc32)cc1,"inconclusive: 89.1 µM [inhibitor, single point]"
23,Cc1ccc2c(c1)C(=O)C(=O)N2Cc1ccc(F)cc1,"inconclusive: 79.4 µM [inhibitor, partial curve, poor fit]"

row,SMILES,Potency
1,COCCNC(=O)/C(C#N)=C/c1ccc(OC(=O)c2cccs2)c(OC)c1,"inconclusive: 50.1 µM [inhibitor, partial curve, poor fit]"
2,CCN(CC)c1ccc(/C=C2\CCC(/C=C(\C#N)C(=O)Nc3ccccc3F)=C2N2CCOCC2)cc1,"inconclusive: 89.1 µM [inhibitor, partial curve, poor fit]"
3,O=C1CN(/N=C/c2ccc(-c3ccc([N+](=O)[O-])cc3)o2)C(=O)N1,"inconclusive: 0.0752 µM [inhibitor, full curve, poor fit]"
4,Cc1ccc(/C=C/C(=O)Nc2sc(C)c(C)c2C(=O)OC(C)C)o1,"inconclusive: 79.4 µM [inhibitor, partial curve, poor fit]"
5,CNC(=O)C(C)N1c2cccc3cccc(c23)S1(=O)=O (configuration not stated),inactive
6,O=C(CSc1ccc2ccccc2n1)NCc1ccc2c(c1)OCO2,"inconclusive: 50.1 µM [inhibitor, partial curve, poor fit]"
7,Cc1cc(C)cc(N2CC(O)=C(c3nc4ccccc4c(=O)[nH]3)C2=N)c1,"inconclusive: 31.6 µM [inhibitor, partial curve, poor fit]"
8,Cc1ccc(Cn2c(SCCN3CCCCC3)nc3c2c(=O)[nH]c(=O)n3C)cc1,"inconclusive: 28.2 µM [inhibitor, full curve, poor fit]"
9,CCOC(=O)C1CCCN(C(=O)Cc2c(C(=O)O)[nH]c3ccccc23)C1 (configuration not stated),inactive
10,CCC(=O)Nc1ccc(-c2nnc(SCc3ccc(C(=O)Nc4nccs4)cc3)n2CC)cc1,"inconclusive: 89.1 µM [inhibitor, single point]"
11,CC(=O)Nc1cccc(N(C)S(C)(=O)=O)c1,inactive
12,Cn1[nH]c(-c2ccccc2)c(/C=N/O)c1=O,"inconclusive: 100 µM [inhibitor, single point]"
13,Cc1ccc(-n2nnc(-c3nsc(NC(=O)c4ccccc4)n3)c2C)cc1,inactive
14,O=[N+]([O-])/C=C/c1cc2ccccc2[nH]1,"inconclusive: 17.8 µM [inhibitor, full curve, poor fit]"
15,O=C(N/N=C/c1ccc(OC(=O)c2ccccc2Cl)cc1)c1ccccn1,inactive
16,CCOc1ccc(OCC(=O)NCCS(=O)(=O)N2CCN(c3ccc(F)cc3)CC2)cc1,inactive
17,Cc1c(Cl)cccc1NC(=O)CN1C(=O)COc2ccc(S(=O)(=O)N3CCCCCC3)cc21,inactive
18,CCOc1ccc(CCNc2cc(C)nc3ncnn23)cc1OCC,inactive
19,CCNC(=S)N(CCc1c(C)[nH]c2ccc(F)cc12)Cc1cccnc1,"inconclusive: 79.4 µM [inhibitor, partial curve, poor fit]"
20,C[C@@H](Cc1ccccc1)Nc1ncnc2c1ncn2[C@@H]1O[C@H](CO)[C@@H](O)[C@H]1O,"inconclusive: 0.0067 µM [inhibitor, full curve, poor fit]"
21,CC(C)NC(=S)NNc1nc2ccccc2s1,"inconclusive: 31.6 µM [inhibitor, full curve, poor fit]"
